Assay results published in paper PMC10040811.
These are yes or no findings as the source states them, for the method shown. Binding seen in cells or lysates may run through a third protein. Some entries that bind do so weakly or less than the wild type. For some of these results: Where a sequence is shown, tags or fusion partners need not be part of it.

Amino acid sequences for entries named in this document (tags omitted). A change or cut given only in a name is not applied to a line headed by its entry. Chains listed by the source or under a name are the forms on record and can include a tag or linker.
l-afadin (endogenous, mouse brain) (mouse (endogenous in brain)) (Q9QZQ1, form named): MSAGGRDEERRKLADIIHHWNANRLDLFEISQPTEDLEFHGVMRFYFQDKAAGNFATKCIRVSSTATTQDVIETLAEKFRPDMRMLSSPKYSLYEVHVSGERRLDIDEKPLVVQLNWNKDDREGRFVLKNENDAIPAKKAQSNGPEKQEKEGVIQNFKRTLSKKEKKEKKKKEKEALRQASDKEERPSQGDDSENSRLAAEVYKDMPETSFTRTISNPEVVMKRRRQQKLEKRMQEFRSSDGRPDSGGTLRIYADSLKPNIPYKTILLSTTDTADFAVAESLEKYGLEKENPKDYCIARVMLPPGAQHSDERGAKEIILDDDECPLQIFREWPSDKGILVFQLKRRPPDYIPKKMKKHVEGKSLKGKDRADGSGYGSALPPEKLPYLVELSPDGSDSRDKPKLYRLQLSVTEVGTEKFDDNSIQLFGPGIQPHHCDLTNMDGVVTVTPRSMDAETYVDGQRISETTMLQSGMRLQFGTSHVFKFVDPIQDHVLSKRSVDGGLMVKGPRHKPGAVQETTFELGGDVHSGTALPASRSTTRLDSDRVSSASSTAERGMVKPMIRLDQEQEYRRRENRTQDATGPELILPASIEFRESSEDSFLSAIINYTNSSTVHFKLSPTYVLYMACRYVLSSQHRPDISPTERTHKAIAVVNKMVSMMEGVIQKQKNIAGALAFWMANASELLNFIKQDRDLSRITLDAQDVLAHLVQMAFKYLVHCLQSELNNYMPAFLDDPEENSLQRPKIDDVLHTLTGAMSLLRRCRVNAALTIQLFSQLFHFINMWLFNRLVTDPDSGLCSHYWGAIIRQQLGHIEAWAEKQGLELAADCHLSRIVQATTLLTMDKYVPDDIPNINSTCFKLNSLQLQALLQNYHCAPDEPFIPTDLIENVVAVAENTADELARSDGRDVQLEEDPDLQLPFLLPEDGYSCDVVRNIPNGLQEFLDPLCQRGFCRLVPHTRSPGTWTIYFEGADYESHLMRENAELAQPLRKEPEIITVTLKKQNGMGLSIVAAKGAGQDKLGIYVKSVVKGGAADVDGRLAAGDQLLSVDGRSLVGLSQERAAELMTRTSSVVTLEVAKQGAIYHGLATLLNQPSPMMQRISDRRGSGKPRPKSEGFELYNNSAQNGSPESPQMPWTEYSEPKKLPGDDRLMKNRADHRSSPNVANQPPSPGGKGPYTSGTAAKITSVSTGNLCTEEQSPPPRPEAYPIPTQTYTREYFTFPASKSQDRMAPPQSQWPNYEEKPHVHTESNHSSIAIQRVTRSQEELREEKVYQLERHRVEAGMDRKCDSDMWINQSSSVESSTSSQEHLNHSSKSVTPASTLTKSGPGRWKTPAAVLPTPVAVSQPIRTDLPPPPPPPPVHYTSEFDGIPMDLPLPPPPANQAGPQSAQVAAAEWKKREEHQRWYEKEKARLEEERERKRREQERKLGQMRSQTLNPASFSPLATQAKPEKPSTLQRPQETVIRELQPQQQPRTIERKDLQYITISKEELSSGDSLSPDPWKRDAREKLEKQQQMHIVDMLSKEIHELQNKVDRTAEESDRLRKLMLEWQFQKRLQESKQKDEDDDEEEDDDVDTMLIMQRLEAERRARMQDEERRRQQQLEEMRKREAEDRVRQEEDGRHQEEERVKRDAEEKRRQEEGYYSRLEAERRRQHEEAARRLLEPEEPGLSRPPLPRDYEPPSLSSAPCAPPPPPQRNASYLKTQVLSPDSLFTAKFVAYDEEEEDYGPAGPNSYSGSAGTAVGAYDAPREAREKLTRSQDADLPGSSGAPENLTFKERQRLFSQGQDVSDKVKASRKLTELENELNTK

Experiments:
[1] = molecular target: l-afadin (endogenous, mouse brain) (mouse (endogenous in brain)) (UniProt Q9QZQ1); test: co-IP; endogenous proteins; light membrane fraction of P21 mouse brain in 0.25% DDM, 100 mM NaCl, 20 mM Hepes pH 7.4, 5 mM EDTA, 5 mM EGTA; l-afadin pAb or l/s-afadin pAb coupled to protein A magnetic beads, overnight, 4 °C; blot with the MAGUIN pAb
[2] = molecular target: EGFP-tagged rat s-afadin (rat) (UniProt O35889); test: co-IP; HEK293 cells co-expressing EGFP-tagged afadin variants and V5-tagged MAGUIN variants; lysate in 0.25% DDM in buffer A; GFP pAb and protein-G Sepharose, 4 °C; blot with the MAGUIN pAb or V5 mAb
[3] = molecular target: T1, EGFP-tagged s-afadin mutant lacking the RA domains (aa 350-1663) (rat) (UniProt O35889); test: as above
T1 sequence: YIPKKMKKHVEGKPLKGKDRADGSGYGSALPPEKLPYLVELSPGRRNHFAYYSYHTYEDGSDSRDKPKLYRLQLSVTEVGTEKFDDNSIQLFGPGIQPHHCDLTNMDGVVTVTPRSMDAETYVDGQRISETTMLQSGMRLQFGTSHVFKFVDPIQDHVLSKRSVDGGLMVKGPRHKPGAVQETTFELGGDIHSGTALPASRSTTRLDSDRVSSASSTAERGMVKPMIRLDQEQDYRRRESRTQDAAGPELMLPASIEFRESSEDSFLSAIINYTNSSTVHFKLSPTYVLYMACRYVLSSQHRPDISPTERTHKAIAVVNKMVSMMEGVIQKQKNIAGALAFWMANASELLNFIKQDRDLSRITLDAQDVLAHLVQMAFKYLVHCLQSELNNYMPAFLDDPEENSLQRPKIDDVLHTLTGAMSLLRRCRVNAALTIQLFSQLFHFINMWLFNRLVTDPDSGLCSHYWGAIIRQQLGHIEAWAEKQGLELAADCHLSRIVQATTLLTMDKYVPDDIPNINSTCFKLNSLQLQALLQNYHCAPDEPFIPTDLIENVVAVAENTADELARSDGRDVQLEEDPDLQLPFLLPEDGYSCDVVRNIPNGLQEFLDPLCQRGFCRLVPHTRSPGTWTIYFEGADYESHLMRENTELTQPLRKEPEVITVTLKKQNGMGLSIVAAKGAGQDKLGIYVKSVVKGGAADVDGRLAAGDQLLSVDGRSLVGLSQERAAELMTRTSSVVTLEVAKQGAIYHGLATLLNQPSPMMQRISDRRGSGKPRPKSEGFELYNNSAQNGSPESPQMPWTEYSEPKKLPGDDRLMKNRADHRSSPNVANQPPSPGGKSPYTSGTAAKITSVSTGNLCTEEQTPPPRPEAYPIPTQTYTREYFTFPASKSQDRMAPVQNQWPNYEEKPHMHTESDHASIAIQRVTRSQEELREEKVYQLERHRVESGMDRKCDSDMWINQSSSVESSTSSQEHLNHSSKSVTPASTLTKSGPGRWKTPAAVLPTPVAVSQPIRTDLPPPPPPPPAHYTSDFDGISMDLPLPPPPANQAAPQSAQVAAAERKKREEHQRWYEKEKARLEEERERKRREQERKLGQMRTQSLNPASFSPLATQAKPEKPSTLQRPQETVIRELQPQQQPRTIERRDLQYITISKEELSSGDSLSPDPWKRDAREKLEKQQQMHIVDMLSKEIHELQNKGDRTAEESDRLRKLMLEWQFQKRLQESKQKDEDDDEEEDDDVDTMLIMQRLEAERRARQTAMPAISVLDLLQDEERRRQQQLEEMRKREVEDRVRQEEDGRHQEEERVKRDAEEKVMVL

[4] = molecular target: EGFP-tagged rat l-afadin (rat) (UniProt O35889); test: as above

binding [1] | binding [2] | binding [3] | binding [4] | Substance
binds | – | – | – | MAGUIN-1 (endogenous, mouse brain) (from UniProt Q80YA9-1 1-1032)
– | binds | no binding | binds weakly | V5-tagged full-length MAGUIN-1 (from UniProt Q80YA9-1 1-1032)
